# Assay results taken from patent publication US20060052454A1 (priority 2004, published 2006).
# Key:
# [1] = test system: infectious diseases (sore throat, flu, or cold); conditions: in vivo
# vision problems = conditions: 46 participants, 10 grams daily
# anemia = conditions: 96 participants, ferropenic anemia most frequent
# [2] = test system: physical malformations or deformities (scoliosis)
# Text: Birth Defects: This study group consisted of twelve participants who had physical malformations or deformities in the mechanical structure of their bodies. […] At the age of two years, they were provided with a Milwaukee Brace.
# [3] = test system: impaired and fatigued voices
# infant strength = conditions: mothers on glycine during all pregnancy, preliminary
# multiple sclerosis = conditions: 18 participants
# high blood cholesterol = conditions: 24 cases treated exclusively with glycine
# arthrosis or arthritis = conditions: four dogs, 1 g daily per 5-7 Kg body mass
# [4] = test system: weak or fragile finger nails; conditions: 137 participants
# osteoporosis = conditions: 65 females, baseline loss 5-20%; several months, 10 grams daily
# hearing problems = conditions: twenty participants
# [5] = test system: muscular problems, including muscular dystrophies; conditions: 5-10 grams/day
smiles,measurement,setting,value
"NCC(=O)O [glycine, Glycine]",Infectious diseases compared to prior years,[1],less infectious diseases
same,Vision,vision problems,some vision improvements
same,Effectiveness in anemia,anemia,effective in all these cases
same,Spinal deviation,"[2]; child with scoliosis, three months, 10 grams daily, baseline 55",39 degrees
same,Height grown,"[2]; child, three months, 10 grams daily",5 centimeters
same,Physical malformations or deformities,[2]; twelve participants,all of them reported improvements
same,Impaired and fatigued voices,[3]; in vivo,significant improvements
same,Mean duration to achieve voice improvements,[3]; less for younger people,2-4 months
same,Condition of babies at birth,infant strength; some 15-20 g daily,born perfectly and noted as being especially strong
same,Babies' head raising and turning,infant strength,able to raise and to turn heads with days of their birth
same,Tolerance of chemotherapy sessions,cancer; glycine added to chemotherapy,tolerated the chemotherapy
same,Carcinoembryonic antigen (CEA),"cancer; person, colon adenocarcinoma, 25 days glycine with continued chemotherapy, baseline 3319",154 ng/mL
same,"Tumor status, metastatic mammary carcinoma with bone metastasis","cancer; person, within two months",absolute tumoral remission
same,LDH,"cancer; same case, 25 days, baseline 821",returned to its normal value
same,Multiple sclerosis conditions,multiple sclerosis,reported improvements in their conditions
same,Blood cholesterol levels after treatment,high blood cholesterol,150-180 mg/100 mL
same,Ambulatory problems,arthrosis or arthritis,ambulatory problems disappeared totally over the next two months
same,Improvement in movement and vitality,arthrosis or arthritis,apparent two weeks after starting the treatment
same,Condition of weak or fragile finger nails,[4],greatly improved
same,Bone mass losses by bone densitometries,osteoporosis,reduced the degree of their bone mass losses
same,Hearing problems,hearing problems,improvements in most of them
same,Muscular problems incl. muscular dystrophies,[5],conditions to have improved
same,Effectiveness in asthma,asthma; 5-10 grams/day,effective at reducing or eliminating the participants' asthma problems
same,"Frequency of asthma crises, 10-15 year-olds",asthma; after 30-60 days,much less frequent
same,"Occurrence of asthma crises, 10-15 year-olds",asthma; after five months,the occurrence of asthma crises ceased
